# Test results taken from the supplement of paper PMC8728848.
# The list shows a part of the results.
# B1: PX9937B-bvu-524-33-524 (Bacteroides vulgatus) (protein)
# chain: GTAYWKNPDQFTAFNTGLHALLREKSYNFFLLGEPRADIYGDNPIGGEASQGMERLPFNTINKENVGISNYGDMYKIINQINQMIAKTTETTILTEATQNYYLGEAYGMRAYLYFHLLRSWGDVVLYLDYTEGQNLDLSNITKGVSPATEVMEQIKKDIQASENAFGSDYSFKLGRHFWSAAATQMLKGEAYLWSGRQMNGGNSDYTIAKNAFENVKKADVGLVTSSFKDIFSFENKKNKEMIFTIHNGKDEYEMWGGYYRMRLIPAQDKMVKIYCDENGNSFVGTPDAQLNGLTQLQVRREFYFKGFRNNDTRWTTSLKAVYKKDAQGVVSYFGPITYKFQGTMLEGGSTRSFLDDFPIYRYADCLLQLAMAKVLLGEDPTEEINAVRERAYGSKYFNEHKAEIAYPNDNDPEFYTDNKWMKPDNAGALEAILKERLREFMFEGKRWYDIRLLGWDYVHQYSSAEQSRLLWPIDAGTLTNNSALKQTPGYE
# Columns and labels:
# Assay in all cases: glycan array binding signal (z-score within array); higher = stronger binding
# Conditions in all cases: glycan notation: IUPAC condensed, linker removed
# [1] = target: Neu5Ac(a2-3)Gal(b1-4)GlcNAc(b1-6)GalNAc
# Summary of the method: (§1)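 The binding signal is a Z-score computed within each array. Data were drawn from 3228 arrays in the Consortium for Functional Glycomics database, restricted to those with a known protein sequence. Scores were averaged over arrays of the same protein sequence at different concentrations or buffers, and over linkers, and negative values can be taken as non-binding.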
# [2] = target: Neu5Ac(a2-3)Gal(b1-4)GlcNAc(b1-6)[Gal(b1-3)]GalNAc
# Summary of the method: as §1
# [3] = target: Neu5Ac(a2-3)Gal(b1-4)GlcNAc(b1-6)[Neu5Ac(a2-3)Gal(b1-3)]GalNAc
# Summary of the method: as §1
# [4] = target: Neu5Ac(a2-3)Gal(b1-4)GlcNAc6S
# Summary of the method: as §1
# [5] = target: Neu5Ac(a2-3)Gal(b1-4)[Fuc(a1-3)]GlcNAc
# Summary of the method: as §1
# [6] = target: Neu5Ac(a2-3)Gal(b1-4)[Fuc(a1-3)]GlcNAc(b1-2)Man
# Summary of the method: as §1
# [7] = target: Neu5Ac(a2-3)Gal(b1-4)[Fuc(a1-3)]GlcNAc(b1-3)Gal
# Summary of the method: as §1
# [8] = target: Neu5Ac(a2-3)Gal(b1-4)[Fuc(a1-3)]GlcNAc(b1-3)Gal(b1-4)GlcNAc
# Summary of the method: as §1
# [9] = target: Neu5Ac(a2-3)Gal(b1-4)[Fuc(a1-3)]GlcNAc(b1-3)Gal(b1-4)[Fuc(a1-3)]GlcNAc(b1-3)Gal(b1-4)[Fuc(a1-3)]GlcNAc
# Summary of the method: as §1
# [10] = target: Neu5Ac(a2-3)Gal(b1-4)[Fuc(a1-3)]GlcNAc(b1-3)GalNAc
# Summary of the method: as §1
# [11] = target: Neu5Ac(a2-3)Gal(b1-4)[Fuc(a1-3)]GlcNAc(b1-6)[Gal(b1-3)]GalNAc
# Summary of the method: as §1
# [12] = target: Neu5Ac(a2-3)Gal(b1-4)[Fuc(a1-3)]GlcNAc(b1-6)[Neu5Ac(a2-3)Gal(b1-3)]GalNAc
# Summary of the method: as §1
# [13] = target: Neu5Ac(a2-3)Gal(b1-4)[Fuc(a1-3)]GlcNAc6S
# Summary of the method: as §1
# [14] = target: Neu5Ac(a2-3)Gal6S(b1-4)GlcNAc
# Summary of the method: as §1
# [15] = target: Neu5Ac(a2-3)Gal6S(b1-4)[Fuc(a1-3)]GlcNAc
# Summary of the method: as §1
# [16] = target: Neu5Ac(a2-3)GalNAc
# Summary of the method: as §1
# [17] = target: Neu5Ac(a2-3)GalNAc(b1-4)GlcNAc
# Summary of the method: as §1
# [18] = target: Neu5Ac(a2-3)[GalNAc(b1-4)]Gal(b1-4)Glc
# Summary of the method: as §1
# [19] = target: Neu5Ac(a2-3)[GalNAc(b1-4)]Gal(b1-4)GlcNAc
# Summary of the method: as §1
# [20] = target: Neu5Ac(a2-3)[GalNAc(b1-4)]Gal(b1-4)GlcNAc(b1-3)GalNAc
# Summary of the method: as §1
# [21] = target: Neu5Ac(a2-3)[Neu5Ac(a2-6)]GalNAc
# Summary of the method: as §1
# [22] = target: Neu5Ac(a2-6)Gal
# Summary of the method: as §1
# [23] = target: Neu5Ac(a2-6)Gal(b1-3)GlcNAc(b1-3)[Gal(b1-4)GlcNAc(b1-6)]Gal(b1-4)Glc
# Summary of the method: as §1
binder,measurement,setting,value
B1,glycan array binding signal (z-score),[1],-0.41
same,glycan array binding signal (z-score),[2],-0.473
same,glycan array binding signal (z-score),[3],0.153
same,glycan array binding signal (z-score),[4],-0.119
same,glycan array binding signal (z-score),[5],-0.354
same,glycan array binding signal (z-score),[6],-0.222
same,glycan array binding signal (z-score),[7],-0.359
same,glycan array binding signal (z-score),[8],-0.165
same,glycan array binding signal (z-score),[9],-0.366
same,glycan array binding signal (z-score),[10],0.447
same,glycan array binding signal (z-score),[11],-0.094
same,glycan array binding signal (z-score),[12],0.874
same,glycan array binding signal (z-score),[13],0.116
same,glycan array binding signal (z-score),[14],-0.189
same,glycan array binding signal (z-score),[15],-0.366
same,glycan array binding signal (z-score),[16],-0.139
same,glycan array binding signal (z-score),[17],-0.221
same,glycan array binding signal (z-score),[18],-0.44
same,glycan array binding signal (z-score),[19],-0.08
same,glycan array binding signal (z-score),[20],1.38
same,glycan array binding signal (z-score),[21],-0.279
same,glycan array binding signal (z-score),[22],-0.383
same,glycan array binding signal (z-score),[23],-0.392
